Over roughly 33,000 sequences, “E-score (-0.5 to 0.5)” has its median near -0.035; the highest 2% begin near 0.35. The list shows a part of the results.
molecular target: T1, Pdr3 (UniProt P33200); assay: PBM E-score (8-mer binding enrichment) (E-score (-0.5 to 0.5)); higher = stronger / more preferred TF binding; most listed sequences are background and not binding sites; conditions: protein concentration: 200 nM; construct: GST-full length
T1 sequence: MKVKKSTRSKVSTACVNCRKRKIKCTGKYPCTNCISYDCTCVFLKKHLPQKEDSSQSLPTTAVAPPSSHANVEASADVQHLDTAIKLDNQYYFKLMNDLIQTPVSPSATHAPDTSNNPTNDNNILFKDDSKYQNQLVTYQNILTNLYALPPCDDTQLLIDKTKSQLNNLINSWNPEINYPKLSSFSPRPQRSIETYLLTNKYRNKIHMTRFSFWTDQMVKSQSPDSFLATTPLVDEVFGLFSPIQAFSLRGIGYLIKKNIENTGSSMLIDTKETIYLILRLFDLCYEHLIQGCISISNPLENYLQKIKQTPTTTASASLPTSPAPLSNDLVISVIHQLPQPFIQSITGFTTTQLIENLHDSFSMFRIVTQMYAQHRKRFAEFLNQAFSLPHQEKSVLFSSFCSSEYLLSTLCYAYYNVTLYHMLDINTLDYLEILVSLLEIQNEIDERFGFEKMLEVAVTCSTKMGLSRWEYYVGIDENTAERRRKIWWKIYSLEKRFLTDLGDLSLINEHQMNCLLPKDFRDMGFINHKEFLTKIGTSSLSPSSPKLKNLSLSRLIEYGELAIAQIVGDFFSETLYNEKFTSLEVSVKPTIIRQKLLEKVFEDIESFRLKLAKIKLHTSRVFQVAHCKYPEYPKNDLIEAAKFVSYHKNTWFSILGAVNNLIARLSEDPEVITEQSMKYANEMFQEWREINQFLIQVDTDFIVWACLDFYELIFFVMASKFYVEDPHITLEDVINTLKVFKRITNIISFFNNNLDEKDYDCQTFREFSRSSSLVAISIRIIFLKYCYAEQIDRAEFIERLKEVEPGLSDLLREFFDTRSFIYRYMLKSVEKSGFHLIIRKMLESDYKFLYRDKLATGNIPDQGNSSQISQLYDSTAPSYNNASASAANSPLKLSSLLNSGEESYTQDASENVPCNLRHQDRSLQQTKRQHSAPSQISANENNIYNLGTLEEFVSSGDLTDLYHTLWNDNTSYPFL
Summary of the method: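 Masliner-normalised scans of fluorescent anti-GST signal were the basis for scoring. That signal came from GST-tagged yeast transcription factors applied at about 100-200 nM to double-stranded universal all-10-mer Agilent arrays on fresh or once-stripped slides. Each ungapped eight-base word, pooled with its reverse complement, received an E-score from the Universal PBM Analysis Suite.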

Sequence	PBM E-score
ACGGACCC	0.344
AGAGACAC	-0.165
ACGTAAAT	-0.105
GCGAACCC	0.0677
AGAAAACT	-0.18
CCATGTCC	0.135
CTGGGTCC	-0.128
AATGTCGT	-0.138
GGCCGCAA	0.0933
CGAACGTA	-0.194
ACACTACC	-0.166
TACCTCCA	-0.202
AGTGCTAA	0.0692
GTCAGCCA	-0.167
AGGGATTG	-0.0865
GCGCGGTA	0.28
ACCCTATC	0.036
TCTGAGCA	-0.212
GAGACGTA	-0.148
ATTTGGAG	-0.112
ACATTAAA	-0.084
CCTGTATA	-0.00321
CGTACTCC	0.0233
CCTATTTC	-0.0468
ACCGATCG	0.123

Sequence	PBM E-score
AGTCATAT	-0.0519
CGACAGGA	0.133
AAGCTTAG	-0.116
TGATTTAA	-0.0145
AAAGTCTC	-0.186
GCAATTGC	-0.0244
ACAGCGAG	0.0203
CCACGTGA	-0.0844
ATATAGGC	0.0495
ACCGAAAA	0.00943
CAACAAGC	-0.101
AACCTTAA	0.0253
GGGTGCTA	-0.127
GGGGCTAA	-0.156
CCTCTCGA	-0.179
AGCATCCG	0.264
ATGCTCTG	-0.11
CAATGTTC	-0.00706
GGATTGTA	0.0987
ACGGCGCC	0.243
AACGTGGG	-0.153
ATCGCACA	-0.207
GCGCATGA	-0.107
CATGCACA	-0.0998
CAACCCTG	0.0534

Sequence	PBM E-score
ACCTACGT	-0.0544
GGGACTTA	-0.0563
CTACGAAG	-0.339
GACGCATA	-0.00377
ACTGACGG	0.15
ACTCCCTC	-0.236
ACCATTGG	-0.121
ATCACACA	-0.101
CATCGACA	-0.0292
AAGTGTGG	0.0987
AGGCCTGC	-0.0432
AGTCCTCG	-0.184
GGAGCGGA	0.326
CGGGAACG	0.285
ACCCCGAG	0.0107
AACGCCTA	-0.132
ACACACTC	0.0875
CATGAATA	-0.313
CAGGCAAA	0.00637
GCGCTAAC	-0.104
CCTGGACC	-0.117
ATCGGAAC	0.469
ACCCCACG	-0.0103
GTGGGCAA	-0.22
AAGTCGCC	-0.0545

Sequence	PBM E-score
CTAACTAA	-0.136
AGCCTGAA	-0.0826
ATGCTCGC	-0.113
AACTTGGC	-0.014
ACGTCTAC	-0.235
CCAGAGCG	-0.109
AAATCCCC	0.0279
CGCGCACA	0.0847
AAAATGTC	-0.0052
AGCTCTGG	-0.168
AAAATTGC	-0.0268
CATCGAGA	-0.1
CAATGGTG	-0.168
ATGGTTCC	0.371
GTGGGAGA	-0.217
CGACCGAG	0.124
CAACTTGC	-0.171
CCACCTAA	-0.163
AGACCGCT	-0.111
CTCAGAAG	-0.174
ACGGGTGG	0.323
CATAACAA	0.104
ATGCTAAC	-0.00545
ACTCCGAC	0.255
AACCGCCA	-0.0357

Sequence	PBM E-score
CCAGTCAC	-0.0677
CTGCGGCA	0.0359
CGTTACCC	0.0536
CAACCCGG	0.293
TGATCAAA	-0.141
ATAGTAAA	0.039
GAAATAGC	0.0225
CCGTCGGC	0.285
GACGTACA	-0.138
GTTTCAGA	-0.0598
ACCCAAGA	-0.0781
AGCGAGCC	0.0476
AGAGAGTC	-0.249
CTCTACCC	-0.176
ACGGGGCC	0.166
CTTTAAGC	-0.165
CTCGATCC	0.153
AATACTAG	0.023
CGACCAAC	0.0392
AAGATCTC	-0.134
GGGAACAC	0.183
GATGGAGA	0.0098
CCTCCCTA	-0.228
CTCAGCTC	0.0376
ATGACAGC	-0.202

Sequence	PBM E-score
GAGGAAGC	-0.0425
GGTGGTAC	-0.0698
TATTTCGA	0.0154
AACCAACG	-0.0168
ACCCATGC	-0.0401
TCATCAGA	-0.127
AGACACCG	0.0281
AACGGAGC	0.275
GGCTGCCA	-0.0823
CCCCGTAC	-0.184
ACTCCCGG	0.356
CAGATGTC	-0.0141
CACACGTC	-0.157
AAGTCACT	-0.0519
ACCGCCGA	0.103
CTTACAAA	-0.0864
CATCTTCG	0.0347
GTCACTGA	-0.0588
ATTCTGAG	-0.156
TATTGTCA	-0.0212
ATTTCACA	0.0307
ACATGCCT	-0.129
GGCAACAA	-0.0279
AGAGATTC	0.103
AATTCCGA	0.423

Sequence	PBM E-score
AGATCTGG	-0.154
GACAATGC	-0.0041
GAGATCCA	0.112
CGCGATCC	0.137
ACACGAAA	0.063
ACGGTGCG	0.145
GTCAATTA	-0.0543
TAGTTATA	-0.0743
AGTAGCAA	0.1
CAAAACCC	0.195
CGCGCCAC	0.0494
AGACCCAA	-0.0539
CCAGCGTC	-0.0164
CACTCATC	-0.0423
AGCAGCGC	-0.0233
GGTGAGTA	-0.133
AAACAAGA	0.0402
AGGACTTC	-0.0813
GTGGAAAA	-0.109
GTGCGAAA	-0.0529
AGACCACG	-0.235
CGAGCCGC	0.3
